Assay results from the supplement of paper PMC11417369.
This is one part of the list.

System: PF3D7_0420300 AP2 domain 1 (GST-tagged)
Test: gcPBM binding intensity (ln(normalized median fluorescence intensity)); higher = stronger DNA binding
Outline: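 GST-tagged P. falciparum DNA-binding domains, expressed in E. coli (about 25 μg on average), were applied for 1 h to an Agilent 4 × 180k array of primer-extended double-stranded 36-bp intergenic genomic probes plus negative controls. The binding buffer was 1× PBS with 1% milk, 0.2 mg/ml BSA, 0.5% salmon testes DNA and 0.03% Triton X-100. Bound protein was detected with Alexa488 anti-GST antibody and scanned at 488 nm. Binding intensity is the highest Masliner-normalised natural-log median intensity across replicate spots of either probe orientation.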

Sequence | gcPBM binding intensity (ln)
TTAATATAATTAAAATGTACTTATTTGTAAACATTA [XGTACX_site6313] | 8.86
GAGGATCATCAATTCACACACATAAAAATGAAGTTA [CACACA_site3078] | 9.38
CAACGATACAAAAAAGGTACACATATATATATATAT [XGTACX_site8688] | 9.18
TATATAAAATTCTATTGTACATGTTATACGAAAGAA [XGTACX_site5711] | 9.19
TTCTTTTTAATGTCGGTGCAACTCCATAAAAACAAA [GTGCAC_site9488] | 8.96
CAATTTTCTAATGAAACATGCAAAATAAAATTTTAT [TGCATGCA_site13] | 8.99
CAAATACATAGACACACACACATATACATATTTATA [CACACA_site7610] | 10
GAATAAAGGAGAGGCACACATATATATATATATATA [CACACA_site2452] | 9.26
TATTTGATAAATTATACACACACAATATATATAAAA [CACACA_site8625] | 9.86
TTTATATTTAAATGCATGCACTTTCTATTTTTTTTT [GTGCAC_site9959] | 9.35
ATTTTTTATATTTAGTGTACATGTTTTAATTTATAA [XGTACX_site7512] | 9.37
ATAACTTTATTCAGTTTGCACTTTTATAACAAAAGA | 9.14
CTTATATAATTCGATAGTACATATTTTTATATATAT [XGTACX_site4045] | 9.21
ATATTTTTTAGTAAGACGAAATAAATAAATCTTTAT [CACACA_negctrl_site1778] | 8.86
TTTTCTTTTTTTTTTGTGCACATAATATATAATTAT | 9.37
TATATATATATAAGCACACAAACAAAAAAAATTATA [CACACA_site3897] | 9.57
ATTGAATATGTAAATGCACACCAAAAAAAAAAAAAA [CACACA_site9189] | 9.21
TTTTTCCTATTTTTAGTGCACATATAAATAAATAAA [GTGCAC_site9821] | 8.92
AATAGAATGTAATATACACACATATATTTCTCTTTT [CACACA_site2630] | 9.45

Sequence | gcPBM binding intensity (ln)
TATATATATATATATTGTACACATTGTGTTTAAATA [XGTACX_site5104] | 9.17
TTGTAACCTATGCACGCACACAAGAAAAAAACAAAA [CACACA_site3775] | 9.35
TTTTTATTGTTAATTTTAATTTTTTTTTTTTAATGC [CACACA_negctrl_site162] | 8.82
TTTCCTTATAAAAATACACACAAACTTTAATTAAAA [CACACA_site7710] | 9.1
TTTCTTTTTAAATGCTGTACAAAGGGTGACGTTAAA [XGTACX_site4724] | 8.86
TATTACACATATTATACACACATATATTATAGATAT [CACACA_site6839] | 9.58
TATTCCAAATTTACTAGTACATAATCCATCCGATAA [XGTACX_site1558] | 9.04
AAAATTCATATATACACACACGCACATATATATATA [CACACA_site90] | 9.85
GAATGTCTAATTTTGATGCACACTTTTGTGCAATTA [CACACA_site2902] | 9.11
CAAAAAATTCAACACACACACACACCGATAAATAAA [CACACA_site8330] | 10.2
TTATATTATTCGTGTGTGCACGATATTTCATAATTG [GTGCAC_site9767] | 9.45
TTGTCCCTATAAGGGGAACACACATAAATGAATATA [CACACA_site8250] | 9.08
ATAATGTTTTATAATACACACATTATGTATATAAAT [CACACA_site4077] | 9.24
AAAACTATTTGTAAAAGTACATAATAAATAAATAAA [XGTACX_site7922] | 9.28
CGTATTTATAGAATTACACACCATATTGTAATTATT [CACACA_site7722] | 9.32
GTGTTTTTATTATTTTGTACACATATATTTAATATT [XGTACX_site2109] | 9.79
TTTTTTTTGTAATACGCATGCTAAAAATATTTATAA [TGCATGCA_site656] | 8.91
ATTTAAATAAGATATACACACAAGTAGAAGACTATG [CACACA_site806] | 9.71
TTTTCGATGTTGGTAGGAAGTTTGGTACACGTAGTA [TGCATGCA_negctrl_site145] | 9

Sequence | gcPBM binding intensity (ln)
TTAAGAAATAACAATGCACACATTTAGGTCTTTTAT [CACACA_site3285] | 9.39
ATAACTTGTATATATACACACACACCCTTTCTTTTT [CACACA_site8600] | 10.1
TATATTATATTATACATACACACCCATATAATATGT [CACACA_site869] | 9.67
CTTCAATATATTCTTACACACTTAAAAAAAAAAATA [CACACA_site4287] | 9.08
TTAGATATGTGTAAGGGTACAAAATACTTTACATTT [XGTACX_site8204] | 9.25
CTATTATTTTTAAATTGTACTATAACAAAATGTATA [XGTACX_site3916] | 8.89
TTTATATTTATATAAATATAATATATATGAATTATA [XGTACX_negctrl_site466] | 8.72
AAATAAATCTATAATACACACAAAAATATAAAATGC [CACACA_site7700] | 9.85
ATATATATGTTTTATAGTACACACATAAATGGACAT [XGTACX_site4538] | 9.56
GTTGAACATATATGCACACACATAAAATAAAAAAAA [CACACA_site2413] | 9.66
TTGTGAAACATCAAGAAAAAGAAATAATAAAAAGAA [GTGCAC_negctrl_site38] | 9.26
TTATATTAATATATATGTACATATATTTTTTTTATA [XGTACX_site6981] | 9.26
TCTTTTTTTTTTTTTTTTTTTTTTTATTTATTCATA [CACACA_negctrl_site1827] | 9.26
AAAAGGTATCCACATACGCACACCAAAAAAAAAAAT [CACACA_site347] | 9.46
ATACAACAATGTGAATTATATATGGATGGAGAATGA [GTGCAC_negctrl_site148] | 9.43
ACGTAAGCGAATAAAAGTACATATATTAAAAAAAAA [XGTACX_site4458] | 9.13
TTCTTAAGGAACGAACGTACAGAATAAAAAGTAAAA [XGTACX_site4294] | 9.12
CATTCAATTGAAAAATGTACAAAAATAAACATATGC [XGTACX_site1663] | 9.42
TAAGTATACGCATACACACACACACCCAAAAAAAAA [CACACA_site425] | 9.99
